The supplement of paper PMC10126150
Values marked as one replicate rest on one cluster of the flow cell; about a third of the high ones do not repeat.

These sequences were tested on ATP (assay: switch fluorescence ratio, 500 uM ATP over buffer (Cy3 cluster intensity, sum of 5 cycles each) (fold (ratio)); higher = stronger signal-on switching upon ATP binding; sequences stand for … in TCGTCGGCAGCGTCAGATGTGTATAAGAGACAGTTTTTTTTTTTTTTTTTTTTTTTTT…TC). Settings: aptamer strand: ATP DNA aptamer (quencher-CACCTGGGGGAGTATTGCGGAGGAAGG + anchor), 100 nM annealed; ATP concentration: 500 uM; one replicate.
Method in brief: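 Per cluster, summed Cy3 intensity from the target cycles was divided by that from the buffer cycles to give the fluorescence ratio, then averaged per switch-domain sequence. Clusters outside 100-1000 RFU were excluded. The Cy3-labelled switching-strand clusters, on a modified Illumina MiSeq flow-cell, were annealed to 100 nM quencher-labelled ATP aptamer and imaged in selection buffer, then after 15 min with 500 uM ATP at 22 °C, for five cycles with NaOH stripping and re-annealing between them.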
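Further: ATP exposure 15 min at 22 °C before imaging.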

Sequence | switch fluorescence ratio
CCGGCGGTCC | 1.1
CCGGCGGTCG | 1.01
CCGGCTATA | 2.26
CCGGGAACTT | 1.02
CCGGGCGTTG | 0.998
CCGGGCTAAA | 1.42
CCGGGGCGGT | 1.17
CCGGGGTAAT | 1.83
CCGGGTCTAG | 1.23
CCGGGTGGTG | 1.08
CCGGTAAAAA | 1.08
CCGGTAACTT | 1.06
CCGGTAGTAG | 1.23
CCGGTCCTTA | 1.06
CCGGTGCCGC | 1.08
CCGGTGCGAA | 2.07
CCGGTGTACT | 2.92
CCGGTTGATT | 1.01
CCGTAACTGA | 1.31
CCGTACCCAT | 1.2
CCGTATATGA | 1.59
CCGTCAGGGG | 1.32
CCGTCCCGGA | 1
CCGTCGACTT | 1.05
CCGTCGTGTA | 1.02

Sequence | switch fluorescence ratio
CCGTCTGAAG | 1.05
CCGTCTGAGC | 1
CCGTGAATCC | 3.75
CCGTGAGCTT | 3.87
CCGTGATATA | 1.33
CCGTGATCCA | 1.13
CCGTGATTTC | 0.999
CCGTGCACAG | 1.35
CCGTGCACCC | 1.79
CCGTGCCATA | 2.12
CCGTGGAGTT | 1.09
CCGTGGGCGC | 1.09
CCGTGTAGTT | 1.05
CCGTTACTGA | 1.06
CCGTTCCAGA | 1.03
CCGTTGCCAT | 1.17
CCGTTTAGAA | 1.08
CCGTTTATCT | 1.05
CCGTTTGTGA | 1.06
CCTAAAAATG | 1.01
CCTAAACCCT | 1.06
CCTAAAGTCT | 1.03
CCTAACACTT | 1.02
CCTAACGGGT | 1.02
CCTAAGGAAG | 0.97

Sequence | switch fluorescence ratio
CCTAAGTTCG | 0.999
CCTACTGAAG | 1.06
CCTAGAGCCT | 1.15
CCTAGATCGT | 0.958
CCTAGGGAAT | 1.1
CCTAGGGAGA | 1.01
CCTAGTGTAT | 0.974
CCTAGTTGTT | 1.04
CCTATACGGC | 1.04
CCTATCTGAA | 1.02
CCTATGCAAG | 4.74
CCTATGTTTT | 1.02
CCTCAGAATG | 1.34
CCTCAGCATA | 3.35
CCTCAGTTGG | 1.23
CCTCATGCGT | 3.27
CCTCCAAGGT | 1.18
CCTCGAGCTA | 2.7
CCTCGAGGCC | 1.04
CCTCGATCG | 1.04
CCTCGCCCAT | 2.73
CCTCGCGGTG | 2.19
CCTCGCTGCT | 2.44
CCTCGCTTTT | 1.92
CCTCGGTGCC | 1.11

Sequence | switch fluorescence ratio
CCTCGTAAAA | 1.03
CCTCGTATCT | 1.07
CCTCGTCTAG | 1.42
CCTCGTGAAA | 1.13
CCTCTAGAGA | 2.14
CCTCTCACCT | 1.31
CCTCTCGTAT | 2.55
CCTCTCTACA | 1.22
CCTCTGGTAT | 3.04
CCTCTTAGTG | 1.08
CCTCTTTCAG | 1.01
CCTCTTTGTT | 1.06
CCTGACCTTG | 0.998
CCTGACGTC | 1.04
CCTGAGTCCG | 1.79
CCTGAGTGGG | 0.963
CCTGCACGCT | 1.45
CCTGCAGACT | 1.65
CCTGCGTGAC | 4.56
CCTGCGTGCT | 1.41
CCTGGTTGCT | 0.977
CCTGTAGACA | 1.03
CCTGTAGCTG | 1.36
CCTGTCTGAC | 1.11
CCTGTGACTA | 1.12

Sequence | switch fluorescence ratio
CCTGTTAGTC | 0.962
CCTGTTCAGG | 1.07
CCTGTTGTCG | 1.1
CCTGTTTGGT | 0.952
CCTTAAGTAC | 2.98
CCTTACCAAT | 1.14
CCTTAGGTCT | 1.05
CCTTAGTGCT | 0.986
CCTTATAGCA | 1.51
CCTTCAAC | 1.21
CCTTCATTGA | 1
CCTTCCCCCT | 1.69
CCTTCCCGTT | 1.5
CCTTGATGAT | 0.981
CCTTGCCAGG | 1.43
CCTTGCGGAG | 1.69
CCTTGCTCTG | 2.8
CCTTGGCAAA | 3.64
CCTTGGGGGC | 1.03
CCTTGTCTGG | 1.08
CCTTTAATTT | 1.07
CCTTTATGCC | 1.08
CCTTTCTGCC | 1.06
CCTTTGAAGT | 1.04
CCTTTGCGCC | 1.96

Sequence | switch fluorescence ratio
CCTTTTTGCT | 0.982
CGAAAAAACT | 1.03
CGAAAAAGCT | 1.02
CGAAAATCCA | 0.972
CGAAAGGAAG | 1.01
CGAAAGGCCG | 0.982
CGAAATCTGG | 1.03
CGAAATGTGG | 1
CGAACACGAT | 1.06
CGAACGGCTA | 1.28
CGAACGTTAC | 3.67
CGAACTATCT | 0.985
CGAACTCCCC | 3.71
CGAAGGGTTG | 0.964
CGAAGGTCCC | 1.03
CGAAGTCACA | 1.16
CGAATAAACA | 0.988
CGAATACAG | 0.978
CGAATCCAGC | 0.978
CGAATCTGTG | 0.954
CGAATGGCAG | 0.999
CGAATGTGAT | 0.966
CGAATGTTGA | 0.976
CGAATTTCCG | 1.02
CGACAATTCA | 1.07

Sequence | switch fluorescence ratio
CGACATATAT | 1.16
CGACATGGTT | 1
CGACATTTTA | 0.963
CGACCCACCA | 1.37
CGACCCGTCC | 1.18
CGACCGGGTG | 3.12
CGACGAAACA | 1.07
CGACGATCAT | 1.08
CGACGGAAAC | 3.4
CGACGGGTCG | 1.02
CGACGGTGAT | 1.21
CGACTACCGG | 1.03
CGACTGCTGG | 1.05
CGACTTCCGG | 1.02
CGACTTCGCA | 4.57
CGACTTGTTC | 1.05
CGAGAAACTC | 1.03
CGAGAACAGC | 0.975
CGAGAATCCG | 0.999
CGAGAGACGG | 1
CGAGAGATTA | 1.01
CGAGAGTGGT | 0.993
CGAGCAACG | 1.11
CGAGCACGAT | 1.15
CGAGCCAGGA | 1.03

Sequence | switch fluorescence ratio
CGAGCCTCCT | 1.08
CGAGCGGCGT | 1.03
CGAGCGTCAG | 1.03
CGAGCTTCTG | 0.979
CGAGGAAAAT | 1.02
CGAGGAACGG | 0.992
CGAGGCTTTG | 1
CGAGGGACCT | 1.08
CGAGGGCGT | 1.03
CGAGGGGCGC | 0.965
CGAGGGGTCG | 1.03
CGAGGGTTTT | 1
CGAGGTCGAA | 1
CGAGGTCGAT | 0.979
CGAGTAGCGA | 0.973
CGAGTAGTTG | 1.03
CGAGTCGGTC | 0.997
CGAGTGTGCG | 1.02
CGAGTGTTT | 0.92
CGAGTTCATG | 1.01
CGATAGGCGA | 1.01
CGATAGTAAA | 1.01
CGATAGTAAT | 1.17
CGATATACGT | 1.05
CGATATATAT | 1.04
